Laboratory results: the supplement of paper PMC8728848
This is one part of the list.

How the values were obtained:
Assay in all cases: glycan array binding signal (z-score within array); higher = stronger binding
Details in all cases: glycan notation: IUPAC condensed, linker removed
Fuc(a1-2)Gal = target: Fuc(a1-2)Gal
Outline: (§1)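 The binding signal is a Z-score computed within each array. Data were drawn from 3228 arrays in the Consortium for Functional Glycomics database, restricted to those with a known protein sequence. Scores were averaged over arrays of the same protein sequence at different concentrations or buffers, and over linkers, and negative values can be taken as non-binding.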

Fuc(a1-2)Gal(b1-3)GalNAc = target: Fuc(a1-2)Gal(b1-3)GalNAc
Outline: as §1

[1] = target: Fuc(a1-2)Gal(b1-3)GalNAc(a1-3)[Fuc(a1-2)]Gal(b1-4)Glc
Outline: as §1

[2] = target: Fuc(a1-2)Gal(b1-3)GalNAc(a1-3)[Fuc(a1-2)]Gal(b1-4)GlcNAc
Outline: as §1

[3] = target: Fuc(a1-2)Gal(b1-3)GalNAc(b1-3)Gal
Outline: as §1

[4] = target: Fuc(a1-2)Gal(b1-3)GalNAc(b1-3)Gal(a1-4)Gal(b1-4)Glc
Outline: as §1

[5] = target: Fuc(a1-2)Gal(b1-3)GalNAc(b1-4)[Neu5Ac(a2-3)]Gal(b1-4)Glc
Outline: as §1

Fuc(a1-2)Gal(b1-3)GlcNAc = target: Fuc(a1-2)Gal(b1-3)GlcNAc
Outline: as §1

[6] = target: Fuc(a1-2)Gal(b1-3)GlcNAc(b1-2)Man(a1-3)[Fuc(a1-2)Gal(b1-3)GlcNAc(b1-2)Man(a1-6)]Man(b1-4)GlcNAc(b1-4)GlcNAc
Outline: as §1

[7] = target: Fuc(a1-2)Gal(b1-3)GlcNAc(b1-3)Gal(b1-4)Glc
Outline: as §1

[8] = target: Fuc(a1-2)Gal(b1-3)GlcNAc(b1-3)[Fuc(a1-3)[Gal(b1-4)]GlcNAc(b1-6)]Gal(b1-4)Glc
Outline: as §1

[9] = target: Fuc(a1-2)Gal(b1-3)[Fuc(a1-4)]GlcNAc
Outline: as §1

[10] = target: Fuc(a1-2)Gal(b1-3)[Fuc(a1-4)]GlcNAc(b1-2)Man(a1-3)[Fuc(a1-2)Gal(b1-3)[Fuc(a1-4)]GlcNAc(b1-2)Man(a1-6)]Man(b1-4)GlcNAc(b1-4)GlcNAc
Outline: as §1

[11] = target: Fuc(a1-2)Gal(b1-3)[Fuc(a1-4)]GlcNAc(b1-3)[Fuc(a1-3)[Gal(b1-4)]GlcNAc(b1-6)]Gal(b1-4)Glc
Outline: as §1

[12] = target: Fuc(a1-2)Gal(b1-3)[Fuc(a1-4)]GlcNAc(b1-3)[Gal(b1-4)GlcNAc(b1-6)]Gal(b1-4)Glc
Outline: as §1

Fuc(a1-2)Gal(b1-4)Glc = target: Fuc(a1-2)Gal(b1-4)Glc
Outline: as §1

Fuc(a1-2)Gal(b1-4)Glc6S = target: Fuc(a1-2)Gal(b1-4)Glc6S
Outline: as §1

Fuc(a1-2)Gal(b1-4)GlcNAc = target: Fuc(a1-2)Gal(b1-4)GlcNAc
Outline: as §1

[13] = target: Fuc(a1-2)Gal(b1-4)GlcNAc(b1-2)Man(a1-3)[Fuc(a1-2)Gal(b1-4)GlcNAc(b1-2)Man(a1-6)]Man(b1-4)GlcNAc(b1-4)GlcNAc
Outline: as §1

[14] = target: Fuc(a1-2)Gal(b1-4)GlcNAc(b1-3)Gal(b1-4)GlcNAc
Outline: as §1

[15] = target: Fuc(a1-2)Gal(b1-4)GlcNAc(b1-3)Gal(b1-4)GlcNAc(b1-3)Gal(b1-4)GlcNAc
Outline: as §1

[16] = target: Fuc(a1-2)Gal(b1-4)GlcNAc(b1-3)GalNAc
Outline: as §1

[17] = target: Fuc(a1-2)Gal(b1-4)GlcNAc6S
Outline: as §1

[18] = target: Fuc(a1-2)Gal(b1-4)[Fuc(a1-3)]GlcNAc
Outline: as §1

[19] = target: Fuc(a1-2)Gal(b1-4)[Fuc(a1-3)]GlcNAc(b1-2)Man(a1-3)[Fuc(a1-2)Gal(b1-4)[Fuc(a1-3)]GlcNAc(b1-2)Man(a1-6)]Man(b1-4)GlcNAc(b1-4)GlcNAc
Outline: as §1

[20] = target: Fuc(a1-2)Gal(b1-4)[Fuc(a1-3)]GlcNAc(b1-3)Gal(b1-4)[Fuc(a1-3)]GlcNAc
Outline: as §1

[21] = target: Fuc(a1-2)Gal(b1-4)[Fuc(a1-3)]GlcNAc(b1-3)Gal(b1-4)[Fuc(a1-3)]GlcNAc(b1-3)Gal(b1-4)[Fuc(a1-3)]GlcNAc
Outline: as §1

Fuc(a1-2)Gal6S(b1-4)Glc = target: Fuc(a1-2)Gal6S(b1-4)Glc
Outline: as §1

[22] = target: Fuc(a1-2)Gal6S(b1-4)Glc6S
Outline: as §1

[23] = target: Fuc(a1-2)Gal6S(b1-4)GlcNAc
Outline: as §1

Fuc(a1-2)[Gal(a1-3)]Gal = target: Fuc(a1-2)[Gal(a1-3)]Gal
Outline: as §1

[24] = target: Fuc(a1-2)[Gal(a1-3)]Gal(b1-3)GlcNAc
Outline: as §1

[25] = target: Fuc(a1-2)[Gal(a1-3)]Gal(b1-3)GlcNAc(b1-2)Man(a1-3)[Fuc(a1-2)[Gal(a1-3)]Gal(b1-3)GlcNAc(b1-2)Man(a1-6)]Man(b1-4)GlcNAc(b1-4)GlcNAc
Outline: as §1

[26] = target: Fuc(a1-2)[Gal(a1-3)]Gal(b1-4)Glc
Outline: as §1

[27] = target: Fuc(a1-2)[Gal(a1-3)]Gal(b1-4)GlcNAc
Outline: as §1

[28] = target: Fuc(a1-2)[Gal(a1-3)]Gal(b1-4)GlcNAc(b1-2)Man(a1-3)[Fuc(a1-2)[Gal(a1-3)]Gal(b1-4)GlcNAc(b1-2)Man(a1-6)]Man(b1-4)GlcNAc(b1-4)GlcNAc
Outline: as §1

[29] = target: Fuc(a1-2)[Gal(a1-3)]Gal(b1-4)[Fuc(a1-3)]GlcNAc
Outline: as §1

[30] = target: Fuc(a1-2)[Gal(a1-4)]Gal(b1-4)GlcNAc
Outline: as §1

[31] = target: Fuc(a1-2)[GalNAc(a1-3)]Gal
Outline: as §1

[32] = target: Fuc(a1-2)[GalNAc(a1-3)]Gal(b1-3)GalNAc(a1-3)[Fuc(a1-2)]Gal(b1-4)GlcNAc
Outline: as §1

[33] = target: Fuc(a1-2)[GalNAc(a1-3)]Gal(b1-3)GlcNAc
Outline: as §1

[34] = target: Fuc(a1-2)[GalNAc(a1-3)]Gal(b1-3)GlcNAc(b1-2)Man(a1-3)[Fuc(a1-2)[GalNAc(a1-3)]Gal(b1-3)GlcNAc(b1-2)Man(a1-6)]Man(b1-4)GlcNAc(b1-4)GlcNAc
Outline: as §1

[35] = target: Fuc(a1-2)[GalNAc(a1-3)]Gal(b1-4)Glc
Outline: as §1

[36] = target: Fuc(a1-2)[GalNAc(a1-3)]Gal(b1-4)GlcNAc
Outline: as §1

[37] = target: Fuc(a1-2)[GalNAc(a1-3)]Gal(b1-4)GlcNAc(b1-2)Man(a1-3)[Fuc(a1-2)[GalNAc(a1-3)]Gal(b1-4)GlcNAc(b1-2)Man(a1-6)]Man(b1-4)GlcNAc(b1-4)GlcNAc
Outline: as §1

B1: Lmo1413 (Listeria monocytogenes), Q8Y783 (protein)
chain: MKHAKKSLFTFIIFMTILSITFNPFSAKAAPLMLNLPAPQVDQLYIGDDYITGKLQQEVPMHYPGNAAYVLFNNKQYNITDYTVENDVNFRLKLPKTLEAGDTLNYFTITGNVLDPVAYPGQESYKLAGPFSPIEKANIQVNYVDETNQTLATSDTLSGKLGETYTTSPKAIDGYQVKETPTNATGTYTTNTETIQINYVYEKTAVEGANVSVEYINEATNESIAPTETLSGKIGTTFQAEVKEIDGYELSQVPSNQSGTYTDQTQSVIFKYKKITTPDEVAKDVTVTYKDTKGNQLADPVILKGDIGSTFETEAKSFKGYKLTKTPSNHSSVFTSDSQEVEYVYSKDDAVITPPVTPVNPDKPIINPVKPVNPATSTVPNKNISKKNTTKTVNQTGKTSTALQLPKTGDSENNLPLIIGVSLLISGVYIFTTRRKRVK
glycan array binding signal (z-score) (Fuc(a1-2)Gal): -0.003
glycan array binding signal (z-score) (Fuc(a1-2)Gal(b1-3)GalNAc): -0.202
glycan array binding signal (z-score) [1]: -0.22
glycan array binding signal (z-score) [2]: -0.141
glycan array binding signal (z-score) [3]: -0.219
glycan array binding signal (z-score) [4]: -0.201
glycan array binding signal (z-score) [5]: -0.218
glycan array binding signal (z-score) (Fuc(a1-2)Gal(b1-3)GlcNAc): -0.177
glycan array binding signal (z-score) [6]: 0.116
glycan array binding signal (z-score) [7]: 0.045
glycan array binding signal (z-score) [8]: -0.219
glycan array binding signal (z-score) [9]: -0.221
glycan array binding signal (z-score) [10]: 0.547
glycan array binding signal (z-score) [11]: -0.167
glycan array binding signal (z-score) [12]: -0.22
glycan array binding signal (z-score) (Fuc(a1-2)Gal(b1-4)Glc): -0.192
glycan array binding signal (z-score) (Fuc(a1-2)Gal(b1-4)Glc6S): -0.167
glycan array binding signal (z-score) (Fuc(a1-2)Gal(b1-4)GlcNAc): -0.158
glycan array binding signal (z-score) [13]: -0.115
glycan array binding signal (z-score) [14]: -0.153
glycan array binding signal (z-score) [15]: 0.015
glycan array binding signal (z-score) [16]: -0.228
glycan array binding signal (z-score) [17]: -0.135
glycan array binding signal (z-score) [18]: -0.214
glycan array binding signal (z-score) [19]: 0.083
glycan array binding signal (z-score) [20]: -0.249
glycan array binding signal (z-score) [21]: -0.181
glycan array binding signal (z-score) (Fuc(a1-2)Gal6S(b1-4)Glc): -0.165
glycan array binding signal (z-score) [22]: -0.193
glycan array binding signal (z-score) [23]: -0.222
glycan array binding signal (z-score) (Fuc(a1-2)[Gal(a1-3)]Gal): -0.228
glycan array binding signal (z-score) [24]: -0.226
glycan array binding signal (z-score) [25]: -0.164
glycan array binding signal (z-score) [26]: -0.182
glycan array binding signal (z-score) [27]: -0.192
glycan array binding signal (z-score) [28]: -0.156
glycan array binding signal (z-score) [29]: 0.176
glycan array binding signal (z-score) [30]: 0.276
glycan array binding signal (z-score) [31]: -0.095
glycan array binding signal (z-score) [32]: -0.179
glycan array binding signal (z-score) [33]: -0.205
glycan array binding signal (z-score) [34]: -0.212
glycan array binding signal (z-score) [35]: -0.122
glycan array binding signal (z-score) [36]: -0.15
glycan array binding signal (z-score) [37]: -0.11
